# Laboratory results: PubChem BioAssay AID624417 (National Center for Advancing Translational Sciences (NCATS), 2012)
# Hit rate of the full screen: of about 410,000 compounds, about 6,400 (1.6%) were called active. Inconclusive means that the source gave no clear call. Such entries were picked first, then a sample of the others. Calls come from the whole dose curve; as a rule, active = well fitted inhibition curve with a large enough effect; inconclusive = small, poorly fitted or top-dose-only effect; inactive = no such curve, though single readings can be large or run the other way. Potencies of inconclusive entries are left out as doubtful fits.
# Target: Glucagon-like peptide 1 receptor (Homo sapiens) (UniProt P43220)
# Sequence of UniProt P43220 (P43220 whole entry, looked up): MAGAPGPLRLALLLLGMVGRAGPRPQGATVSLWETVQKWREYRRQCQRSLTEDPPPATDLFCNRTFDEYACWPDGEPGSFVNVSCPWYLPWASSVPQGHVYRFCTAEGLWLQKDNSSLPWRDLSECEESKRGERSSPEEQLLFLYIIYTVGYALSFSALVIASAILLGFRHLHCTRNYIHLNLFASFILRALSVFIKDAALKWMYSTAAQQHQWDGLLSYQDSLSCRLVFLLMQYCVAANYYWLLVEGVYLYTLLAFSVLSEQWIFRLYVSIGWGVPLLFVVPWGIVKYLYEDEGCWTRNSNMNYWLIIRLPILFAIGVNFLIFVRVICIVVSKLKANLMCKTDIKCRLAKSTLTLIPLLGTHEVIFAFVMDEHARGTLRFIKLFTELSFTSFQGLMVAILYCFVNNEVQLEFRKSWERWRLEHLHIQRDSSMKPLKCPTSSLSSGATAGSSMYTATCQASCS
# Assay: qHTS of GLP-1 Receptor Inverse Agonists (Inhibition Mode); note: nearly all actives have a fitted effect of over 55% in size
# Conditions: HEK293 GLP-1R CRE-luciferase, luminescence, 24 h, GLP-1R form is constitutively active; activity change, negative = inhibition: at 38.3 µM (top of the series) unless noted
# How it was run: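 qHTS in 1536-well format: reporter HEK293 cells expressing constitutive GLP-1R activity in DMEM + 10% Nu serum, 24 hr with compounds at 37 deg C, luminescence read after 12 min with detection reagent.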
# % is set by controls: 0 for no effect and ±100 for the full control effect; potency is the fitted concentration of half-maximal effect; tags give direction and shape of the fitted curve.
SMILES,Potency,"activity change, negative = inhibition"
CCn1ncc(CN2CCCC(C(=O)Nc3cccc(-c4cc5ccccc5[nH]4)c3)C2)c1C (stereo unspecified),active: 3.55 µM,–
Cc1cc(Br)cn2c(Cc3ccccc3)c(-c3ccc(Cl)cc3)nc12,–,inactive: 3.02%
O=C(NCCc1ccccc1)C(=O)NCCC1CCCCN1S(=O)(=O)c1cccs1 (stereo unspecified),"inconclusive [inhibitor, single point]",–
CCOC(=O)C1CCc2c(ccc3ccccc23)N1CCC#N (stereo unspecified),"inconclusive [inhibitor, partial curve]",–
O=C(Nc1nc(-c2cccs2)c(C(=O)C(F)(F)F)s1)c1ccccc1,"inconclusive [inhibitor, partial curve, poor fit]",–
CCOC(=O)c1c(S(=O)(=O)NCCc2cccs2)c(C)n(C)c1C,–,inactive: -14.1%
COc1ccc(N(CCCN2C(=O)c3cccc4cccc(c34)C2=O)C(=O)c2cccs2)cc1,"inconclusive [inhibitor, single point]",–
CCCCc1c(-c2ccc(OC)c(OC)c2)ncn1CCc1ccccc1OC,"inconclusive [inhibitor, partial curve, poor fit]",–
Cc1cc(C(=O)COC(=O)c2ccc(O)cc2)c(C)n1Cc1ccco1,"inconclusive [inhibitor, single point]",–
Cn1c(CNc2ccc(Cl)cc2)nc2ccccc21,"inconclusive [inhibitor, single point]",–
CN(C)S(=O)(=O)c1ccc(NC(=O)CN2CCC(Cc3ccccc3)CC2)cc1,"inconclusive [inhibitor, partial curve, poor fit]",–
Nc1ccc(-c2nnn(Cc3ccccc3F)n2)cc1,–,inactive: 27.6%
O=C(/C=C/c1ccc(S(=O)(=O)NCc2ccco2)cc1)NCc1cccc(Cl)c1,"inconclusive [inhibitor, partial curve, poor fit]",–
Cc1ccc(C(=O)Nc2ncc(Cc3ccccc3)s2)o1,–,inactive: -6.75%
CC1(C)CC(=O)c2cnn(-c3nc4ccccc4[nH]3)c2C1,–,inactive: 2.2%
CCOC(=O)c1sc(N)c(C#N)c1CSc1nc2ccc(OCC)cc2[nH]1,"inconclusive [inhibitor, single point]",–
O=C(Nc1cccc(Cl)c1)N1Cc2ccccc2Oc2ncccc21,–,inactive: 6.02%
COc1ccc(S(=O)(=O)Nc2ccc(O)c(Sc3nc4ccccc4s3)c2)cc1,"inconclusive [inhibitor, single point]",–
COc1ccc(OC)c(NC(=O)C2(C)CCN2C(=O)Cc2ccc(Cl)cc2Cl)c1 (stereo unspecified),"inconclusive [inhibitor, single point]",–
COCC(C)NC(=S)NCCc1ccc(Cl)cc1Cl (stereo unspecified),"inconclusive [inhibitor, single point]",–
NCc1csc(Nc2ccc(C(=O)c3ccccc3)cc2)n1,"inconclusive [inhibitor, full curve, poor fit]",–
Cc1ccc(-n2[nH]c(=O)c(-c3ccccn3)c2C)cc1,active: 1 µM,–

SMILES,Potency,"activity change, negative = inhibition"
C=C1CCC2C(C)(C)[C@H](O)CC[C@@]2(C)[C@@H]1COc1cc(=O)oc2ccccc12 (stereo partly specified),"inconclusive [inhibitor, single point]",–
CCN(CC)C(=O)[C@H]1C[C@H](CC(=O)NCc2ccco2)C(=O)N2CCc3c([nH]c4ccc(Cl)cc34)[C@]12C,"inconclusive [inhibitor, single point]",–
CC(C)Oc1cc(F)ccc1-c1cc(C(=O)NC2CCCCC2)[nH]n1,"inconclusive [inhibitor, partial curve, poor fit]",–
CCOc1ccc(N(CC(=O)Nc2cccc(OC)c2)S(=O)(=O)c2c(C)noc2C)cc1,"inconclusive [inhibitor, single point]",–
Cc1ccccc1NC(=S)NC(=O)COc1ccccc1C,–,inactive: -3.51%
CC(C)(C)C(=O)Nc1ccc(Cl)c(-c2nc3ccccc3[nH]2)c1,"inconclusive [inhibitor, partial curve, poor fit]",–
O=C(Cn1c(=O)n(Cc2ccc(C(=O)NCc3ccccc3Cl)cc2)c(=O)c2ccccc21)Nc1ccc(F)cc1,–,inactive: 3.82%
COCCN(CC(=O)Nc1cccc(C)c1C)C(=O)c1oc2ccccc2c1C,"inconclusive [inhibitor, single point]",–
Cc1ccc(Cn2c(O)c(N=NC(=S)Nc3ccccc3F)c3cc(S(=O)(=O)N4CCOCC4)ccc32)cc1,–,inactive: 20.4%
CCCCN(C)S(=O)(=O)c1ccc(C(=O)Nc2nnc(C3=COCCO3)o2)cc1,–,inactive: -8.4%
Cc1ccc(S(=O)(=O)N(CC(=O)N2CCC(C)CC2)Cc2ccccc2F)cc1,"inconclusive [inhibitor, partial curve, poor fit]",–
Cc1cc(C)c2oc(-c3ccc(NC(=O)c4cc(Br)ccc4Cl)cc3)nc2c1,"inconclusive [inhibitor, partial curve, poor fit]",–
O=C(Nc1ccc(S(=O)(=O)C(F)F)cc1)c1cccc(S(=O)(=O)N2CCOCC2)c1,"inconclusive [inhibitor, partial curve]",–
CC(=O)NC(CC(=O)N(Cc1ccccc1)c1ccc(C)cc1)c1ccccc1 (stereo unspecified),"inconclusive [inhibitor, single point]",–
CC1Nc2ncnc(N3CCN(c4ccccn4)CC3)c2N(Cc2ccccc2)C1=O (stereo unspecified),–,inactive: -23.2%
CCCCN(CC(=O)NCc1ccc(Cl)cc1)S(=O)(=O)c1ccc2c(c1)OCCO2,"inconclusive [inhibitor, partial curve, poor fit]",–
CCc1ccc(NC(=O)C2CCCN(S(=O)(=O)c3cccnc3)C2)cc1 (stereo unspecified),"inconclusive [inhibitor, partial curve, poor fit]",–
COc1ccc(/C=C/C(=O)c2c(C)cc(C)[nH]c2=O)c2ccccc12,"inconclusive [inhibitor, single point]",–
CN(C)CCN(C)Cc1ccccc1Sc1cccc2ccccc12,"inconclusive [inhibitor, partial curve, poor fit]",–
COc1ccc(-c2c(-c3cc(OC)cc(OC)c3)n(C)c3ccc(-c4ccn[nH]4)cc23)cc1,"inconclusive [inhibitor, partial curve, poor fit]",–
Cc1cccc(N2CCN(c3ncnc4onc(-c5ccc(F)cc5)c34)CC2C)c1 (stereo unspecified),"inconclusive [inhibitor, single point]",–
O=C(CN1C(=O)c2cccc3cccc(c23)C1=O)N1CCN(Cc2ccc3c(c2)OCO3)CC1,–,inactive: 0%

SMILES,Potency,"activity change, negative = inhibition"
CCOc1ccc2nc(Cl)c(C3CC(c4ccc(C)cc4)=NN3C(=O)CCCC(=O)O)cc2c1 (stereo unspecified),–,inactive: 8.03%
O=C(CNC(=O)c1ccccc1)c1ccccc1,"inconclusive [inhibitor, full curve]",–
O=C(CC(c1cccs1)N1Cc2ccccc2C1=O)Nc1ccc(Cl)cc1 (stereo unspecified),–,inactive: 3.29%
COc1ccc(-n2c(CNc3ccc(C)cc3)nnc2SCc2ccccc2)cc1,"inconclusive [inhibitor, partial curve, poor fit]",–
COc1ccc(NC(=S)Nc2ccccc2)c(OC)c1,–,inactive: 5.04%
CC(=O)NC1=C(NC2CCS(=O)(=O)C2)C(=O)c2ccccc2C1=O (stereo unspecified),–,inactive: 13.8%
COC(=O)c1c(NC(=O)c2ccc([N+](=O)[O-])o2)sc2c1CCN(C(C)C)C2,"inconclusive [inhibitor, single point]",–
CCCC(C(=O)NC1CCCC1)N(C(=O)Cn1nnc(-c2ccc(C)o2)n1)C1CCCC1 (stereo unspecified),"inconclusive [inhibitor, partial curve, poor fit]",–
CCOc1ccccc1CNS(=O)(=O)c1cc(-c2cc(C)no2)ccc1C,"inconclusive [inhibitor, single point]",–
CC1CCC2(CC1)NC(=O)N(NC(=O)C1CCN(C(=O)c3ccc(Cl)cc3)CC1)C2=O (stereo unspecified),"inconclusive [inhibitor, single point]",–
COC(=O)Cc1ccc(OC2(C)CCN(Cc3ccc4c(c3)OCCO4)C2)cc1 (stereo unspecified),–,inactive: 9.42%
COc1ccc(OCC(=O)N2CCN(c3cccc(C(F)(F)F)c3)CC2)cc1,"inconclusive [inhibitor, partial curve, poor fit]",–
Oc1cccc(-c2nc3ncccn3c2Nc2cccc(C(F)(F)F)c2)c1,"inconclusive [inhibitor, single point]",–
Cc1cc(N2CCCCCC2)nc(-c2ccccc2O)n1,"inconclusive [inhibitor, single point]",–
COc1ccccc1C(=O)COC(=O)COc1cccc2c1OC(C)(C)C2,–,inactive: 14.4%
COc1ccc(-c2onc(C)c2-c2ccccc2)c(O)c1,"inconclusive [inhibitor, single point]",–
COC(=O)c1ccc(OCC(=O)c2ccccc2)cc1,–,inactive: -10.3%
COc1cc(NC(=O)Cn2c(C)cc(C)c(C#N)c2=O)cc(OC)c1,–,inactive: 11.7%
CCOC(=O)C1(CCOC)CCN(Cc2ccc(C3CCCCO3)s2)CC1 (stereo unspecified),"inconclusive [inhibitor, single point]",–
COc1ccc(-c2csc(N(CC(C)C)C(=O)c3ccco3)n2)cc1,"inconclusive [inhibitor, partial curve, poor fit]",–
Cc1ccc(CONS(=O)(=O)c2cc(C)ccc2C)cc1,"inconclusive [inhibitor, single point]",–
CCc1cc2c(=O)c(-c3nc4ccccc4n3C)c(C(C)C)oc2c(CN2CCN(C)CC2)c1O,"inconclusive [inhibitor, full curve, poor fit]",–
